Some of the results follow. Values were computed here from the reads of four pooled replicates and scatter widely.
What follows are sequences tested against T1, Pho4 (S. cerevisiae) (UniProt P07270) (assay: relative binding free energy (BET-seq); higher = weaker binding). Settings: reference: library average.
T1 sequence: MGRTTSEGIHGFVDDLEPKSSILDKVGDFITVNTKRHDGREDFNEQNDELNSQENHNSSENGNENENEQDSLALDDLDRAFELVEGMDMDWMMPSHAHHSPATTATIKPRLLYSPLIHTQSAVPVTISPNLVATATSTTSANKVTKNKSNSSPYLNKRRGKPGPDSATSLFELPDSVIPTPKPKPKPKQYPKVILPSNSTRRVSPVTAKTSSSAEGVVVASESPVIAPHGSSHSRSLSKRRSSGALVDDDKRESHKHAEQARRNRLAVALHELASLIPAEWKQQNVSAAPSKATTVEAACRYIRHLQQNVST

Row | Sequence | relative binding free energy [kcal/mol]
1 | TTGGCCACGTGATGGC | 0.17
2 | GATGGCACGTGAAAGT | 0.21
3 | GTGCTCACGTGTGCGT | 0.13
4 | GTAGACACGTGGTGAG | -0.06
5 | TATGTCACGTGCGAGT | 0.04
6 | GTGGACACGTGTAGCA | 0.14
7 | TTACACACGTGTTTGG | 0.06
8 | GGGGGCACGTGGCGCA | -0.2
9 | TATTTCACGTGTGACT | 0.32
10 | GCTTTCACGTGAGGGT | 0.47
11 | TGGTTCACGTGGTTTG | 0.27
12 | AATATCACGTGGAGTA | 0.18
13 | TTTTGCACGTGCGTGT | -0.05
14 | TGATGCACGTGCTTTG | -0.08
15 | GGGGACACGTGGTCAG | -0.07
16 | CGTTTCACGTGGTGCG | 0.23
17 | TGCGGCACGTGAGATT | 0.15
18 | CGATTCACGTGGTGCT | 0.26
19 | CTTTACACGTGAGGTG | 0.31
20 | ATAGGCACGTGCTGTG | -0.16
21 | GGGATCACGTGCGTTA | 0.04
22 | CTTTCCACGTGGATGT | 0.18
23 | GCAGACACGTGTGGTG | -0.06

Row | Sequence | relative binding free energy [kcal/mol]
24 | TCGCTCACGTGAGGTG | 0.49
25 | AGTTACACGTGGTTAT | 0.07
26 | TCTCACACGTGGGTGG | -0.03
27 | ATGGTCACGTGATGTT | 0.21
28 | AAATTCACGTGGTGTA | 0.23
29 | CGGGGCACGTGTGTAT | -0.16
30 | AGTAGCACGTGGAGCT | -0.08
31 | GGTGTCACGTGGTTGC | 0.13
32 | TTGAGCACGTGGTTGA | -0.06
33 | TTAAGCACGTGAGAGG | 0.15
34 | TGAATCACGTGTTGCG | 0.09
35 | TCTGGCACGTGAAGTG | 0.06
36 | TAGTGCACGTGTGTCT | -0.01
37 | GAGTACACGTGGGAAT | 0.04
38 | TTCTTCACGTGTGAAG | 0.31
39 | TTGGTCACGTGTTTCA | 0.13
40 | CGCGGCACGTGGAAGG | -0.15
41 | TGATTCACGTGCGTTT | 0.26
42 | TGTTTCACGTGTCAGA | 0.38
43 | GGTATCACGTGTGGGC | 0.21
44 | TCCGGCACGTGGTGGT | -0.08
45 | GGGTTCACGTGTTGAC | 0.27
46 | GATGCCACGTGTGTTG | 0.01

Row | Sequence | relative binding free energy [kcal/mol]
47 | TGTAGCACGTGGTATT | -0.14
48 | TTTGACACGTGAATTT | 0.3
49 | GCGTTCACGTGCTGGT | 0.28
50 | CGGGTCACGTGCGTAA | 0.18
51 | CGGTCCACGTGAGGGT | 0.08
52 | TTGGGCACGTGAGGTT | 0.18
53 | TGGGGCACGTGCGTAA | -0.21
54 | AATAGCACGTGCGGGA | -0.04
55 | TTGATCACGTGCGTTA | -0.06
56 | GTGAGCACGTGTAATT | -0.01
57 | TTTCTCACGTGCTTGG | 0.14
58 | TGTGGCACGTGGGACT | -0.16
59 | AGATTCACGTGTCGGT | 0.29
60 | TGGAACACGTGGGTAC | -0.07
61 | CGCTTCACGTGTATGG | 0.32
62 | GTCGTCACGTGAGTTG | 0.39
63 | AGTATCACGTGGGGGC | 0
64 | TGTAGCACGTGAAAAT | 0.24
65 | TAGTCCACGTGTTGGA | 0.01
66 | TGTCGCACGTGAGTGC | 0.25
67 | ATTCGCACGTGGAGGG | -0.13
68 | TGAGTCACGTGTAGGG | 0.04
69 | TTACTCACGTGTAGGG | 0.12

Row | Sequence | relative binding free energy [kcal/mol]
70 | TTCAGCACGTGCGTGG | -0.15
71 | TGGGACACGTGTCGAT | 0.09
72 | GGTGGCACGTGATCGA | -0.09
73 | ATTGGCACGTGTTTAT | 0
74 | GTATCCACGTGTGTAT | 0.11
75 | ATTTCCACGTGGTGTT | 0
76 | TAGTTCACGTGGACTA | 0.26
77 | TGTGCCACGTGTAAAT | 0.23
78 | GAATTCACGTGATGGA | 0.4
79 | TACTTCACGTGGGATT | 0.19
80 | AGTGGCACGTGGGGGA | -0.21
81 | ACTTTCACGTGATGCT | 0.37
82 | TTATTCACGTGGTTTC | 0.31
83 | AATATCACGTGAAGGT | 0.36
84 | TGTTTCACGTGAGACA | 0.33
85 | TTGTGCACGTGACCGT | 0.05
86 | TTGAGCACGTGGACTG | -0.14
87 | GGTCTCACGTGTCGGT | 0.24
88 | GGGACCACGTGTGTGT | 0
89 | ATGTTCACGTGGGGGC | 0.13
90 | TAGATCACGTGTAGGG | 0.23
91 | AGTGTCACGTGGTACG | -0.01
92 | AATAGCACGTGAGCGG | 0.14

Row | Sequence | relative binding free energy [kcal/mol]
93 | ATTGGCACGTGGCTTT | -0.2
94 | TTTCTCACGTGATAGA | 0.36
95 | GGGAGCACGTGAGTTT | 0.25
96 | AAATCCACGTGAGGGT | 0.25
97 | TCATACACGTGTGGTA | -0.04
98 | TTAGACACGTGCGGCG | -0.03
99 | GTGGCCACGTGGGCTG | -0.17
100 | GTTAACACGTGTTATC | 0.16
101 | TTTCACACGTGGTGGT | 0.1
102 | GCATGCACGTGCGGGG | -0.07
103 | AAAATCACGTGGGTGG | 0.08
104 | GGGGACACGTGTAAGT | 0.14
105 | GTATGCACGTGGTTTC | 0.13
106 | GACGACACGTGGTTGT | 0.13
107 | GTTCGCACGTGGTGAG | -0.02
108 | TGGGTCACGTGAAGAG | 0.28
109 | TGTGCCACGTGCATGG | -0.22
110 | TAGAGCACGTGGTAAT | -0.17
111 | CTGGTCACGTGACGTT | 0.3
112 | AAGGTCACGTGGTAGG | 0.07
113 | CTGTGCACGTGCGTTT | -0.08
114 | GGGGACACGTGTAAAT | 0.21
115 | GCTTGCACGTGGGTCG | -0.14
